The values that follow come from PubChem BioAssay AID1963576 (National Center for Advancing Translational Sciences (NCATS), 2024).

The whole screen tested about 46,000 compounds, of which about 60 (0.1%) were called active. Another 3% or so got no clear call; they are omitted. Calls follow the shape of the dose curve; as a rule, active = well fitted inhibition curve with a large enough effect; inconclusive = small, poorly fitted or top-dose-only effect; inactive = no such curve, though single readings can be large or run the other way. The list shows a part of the results.

The experiment in a line: Primary qHTS assay for Inhibitors of ovarian cancer metastasis using an organotypic tumor microenvironment (TME) model. Also: nearly all actives have a fitted effect of over 65% in size.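 As to activity change, negative = inhibition: plate controls were DMSO wells for no effect and tomatine positive control wells for full effect.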 As to conditions: SKOV3ip1-GFP adhesion/invasion on 3D omental model, fluorescence; series mostly up to 45.8 µM; activity change, negative = inhibition: at the top concentration. The essentials: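 A 3D layer of primary human omental fibroblasts, mesothelial cells, fibronectin and collagen I, grown 48 hr, received SKOV3ip1-GFP cells in serum-free medium plus compounds at 0.36-46 umol/L. After 2 hr RT and 16 hr 37 C, fixed adherent GFP cells were counted; normalized to DMSO and tomatine.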
Turning to `COc1ccc(NC(=O)c2c(NC(=O)c3cccc(C)c3)sc3c2CCC3)cc1`, the “activity change, negative = inhibition” value is inactive: 19.6%.
For `COc1ccccc1Nc1ncc2c(n1)CCN(CC(C)C)C2`, the “activity change, negative = inhibition” value was inactive: -3.5%.
For the compound `COc1ccc(NC(=O)CSC2=Nc3ccccc3C3=NC(Cc4ccccc4)C(=O)N23)cc1` (stereo not drawn), the “activity change, negative = inhibition” value was inactive: 0.846%.
Consider `Cc1cccc(-n2nnc(-c3nc(-c4cccs4)no3)c2N)c1C`, for which the “activity change, negative = inhibition” value was inactive: -11.9%.
For `Cc1ccccc1CNC(=O)CCCn1ncn2c(cc3occc32)c1=O`, the result was inactive.
Consider `O=C(CN1C=NS(=O)(=O)c2ccccc21)Nc1ccc(Br)cc1`, for which the “activity change, negative = inhibition” value is inactive: -7.28%.
Take `Cc1cccc(-c2nc(-c3ccc4c(c3)[nH]c(=O)n4C)no2)c1`: the “activity change, negative = inhibition” value is inactive: 8.72%.
Consider `CCN1C(=O)c2ccccc2S(=O)c2ccc(C(=O)N3CCN(c4ccc(F)cc4)CC3)cc21` (stereo not drawn), for which the call was inactive.
Turning to `Cc1cc(F)ccc1NC(=O)CCS(=O)(=O)c1cccc2nsnc12`, the compound was called inactive.
As to `COc1cc(C)c(S(=O)(=O)Nc2cccc(-c3ccc(N4CCCC4)nn3)c2)cc1C`, the “activity change, negative = inhibition” value was inactive: -1.44%.
For the compound `CC(=O)c1[nH]c(C)c(C(=O)NCc2ccc(Cl)cc2)c1C`, the outcome was inactive.
Take `O=C(Nc1ccc2oc(-c3cccc4c(Br)cccc34)nc2c1)c1ccc(Br)cc1`: the “activity change, negative = inhibition” value was inactive: -9.01%.
`COc1ccccc1-c1c(C(F)(F)F)oc2c(CN3CCCCC3C)c(O)ccc2c1=O` (stereo not drawn): the “activity change, negative = inhibition” value was inactive: 10.6%.
For `Cc1ccccc1CN1C(=O)c2ccccc2Sc2ccc(C(=O)N3CCOCC3)cc21`, the call was inactive.
For the compound `Cc1ccc(S(=O)(=O)N2CCC(C(=O)Nc3cc(C)ccc3C)CC2)cc1`, the “activity change, negative = inhibition” value was inactive: -6.77%.
For the compound `Cc1cccc(NC(=O)CSc2nc3c(oc4ccccc43)c(=O)n2-c2ccccc2)c1C`, the “activity change, negative = inhibition” value was inactive: 8.2%.
With `CCc1cc(=O)oc2cc(C)c3c(-c4ccc(F)cc4)coc3c12`, the “activity change, negative = inhibition” value is inactive: 46.5%.
Regarding `O=C(CSc1c2c(nc3ccccc13)CCC2)Nc1ccc(F)cc1F`, the “activity change, negative = inhibition” value was inactive: -1.58%.
Turning to `Cc1ccnc(NS(=O)(=O)c2ccc(NC(=O)Nc3ccc(S(=O)(=O)Nc4nccc(C)n4)cc3)cc2)n1`, the “activity change, negative = inhibition” value was inactive: 8.62%.
In the case of `CCOC(=O)c1[nH]c(C)c(CCC(=O)NCc2cccc(Cl)c2)c1C`, the “activity change, negative = inhibition” value was inactive: -1.45%.
Same read-out and setting: then `Cc1ccc(OCCSc2nc(-c3cccs3)nc3cc(=O)[nH]n23)cc1Cl`, with inactive: -18.9%; and `COc1ccc(Cn2c(=O)c3oc4ccccc4c3n(Cc3ccccc3)c2=O)cc1`, with inactive: -1.94%; and `COc1cc(-c2cc3n(C)c(C)c(CCC(=O)Nc4ccc(F)cc4)c(=O)n3n2)cc(OC)c1OC`, with inactive: 2.12%.
On the same count and under the same terms, to `COC(=O)c1ccc([C@@H]2Nc3c(cccc3C(F)(F)F)[C@@H]3C=CC[C@@H]32)cc1` belongs inactive: 3.4%; to `COc1ccccc1CCNC(=O)Cc1c(C)c2c(O)cc(C)cc2oc1=O`, inactive: 0.748%.
Consider `Nc1nonc1-c1nc2ccccc2n1Cc1ccc(Br)cc1`, for which the “activity change, negative = inhibition” value is inactive: -9.61%.
Take `Nc1nc2nc(-c3ccc(Cl)cc3)cc(C(F)(F)F)n2n1`: the compound was called inactive.
For `Cc1ccc(NC(=O)CSc2nc3c(c(=O)[nH]2)CN(Cc2ccccc2)CC3)cc1Cl`, the “activity change, negative = inhibition” value is inactive: 13.3%.
On the same count and under the same terms, then `CC(=O)N1c2ccccc2C(=O)C1N1CCN(c2cccc(C)c2C)CC1` (stereo not drawn), with inactive: -17.7%; and `Cc1ccc(NC(=O)C2=CC(c3cccs3)=NS(=O)(=O)N2C)cc1`, with inactive: -1.29%; and `CC1(C)CC(=O)c2cc(C(=O)Nc3ccc(Cl)cc3)c(=O)[nH]c2C1`, with inactive: -8.05%.
`Cc1nc2scc(C)n2c(=O)c1S(=O)(=O)Nc1ccc(N2CCN(C(=O)C(C)C)CC2)cc1`: the “activity change, negative = inhibition” value was inactive: -2.22%.
On the same count and under the same terms, to `CC(C)(Oc1ccc(Cl)cc1)C(=O)Nc1cccc(-c2cn3cccnc3n2)c1` belongs inactive: 9.9%.
As for `CC(CNC(=O)c1sc2ncccc2c1-n1cccc1)c1ccccc1` (stereo not drawn), the “activity change, negative = inhibition” value was inactive: 0.658%.
`O=C(CC(c1cccs1)N1Cc2ccccc2C1=O)Nc1ccccc1F` (stereo not drawn): the “activity change, negative = inhibition” value is inactive: 34.1%.
Take `Cc1ccc(C(=O)NCCSc2c(C)[nH]c3ccccc23)cc1C`: the “activity change, negative = inhibition” value was inactive: -8.54%.
As for `COc1ccc(-c2nc(S(=O)(=O)c3ccc(Cl)cc3)c(N3CCCCCC3)o2)cc1`, the “activity change, negative = inhibition” value is inactive: -24.4%.
On the same count and under the same terms, to `CCOc1cc(C2C(C(N)=O)=C(C)Nc3ncnn32)cc(Br)c1O` (stereo not drawn) belongs inactive: 4.9%; to `Cc1ccc(-c2nn(CCC(=O)Nc3ccc(Cl)c(Cl)c3)c(=O)c3ccccc23)cc1`, inactive: 2.55%.
As to `Cc1ccc(NC(=O)CN2C(=O)CSc3ccc(S(=O)(=O)N(C)C)cc32)cc1C`, the compound was classed as inactive.
Take `COC(=O)c1cc2occc2n1Cc1ccc(F)cc1Cl`: the “activity change, negative = inhibition” value was inactive: 3.27%.
On to `Cc1ccc(CSC2=Nc3ccccc3C3=NC(CCC(=O)NCCc4ccccc4)C(=O)N23)cc1` (stereo not drawn), for which the “activity change, negative = inhibition” value is inactive: -7.96%.
Regarding `CCc1noc(-c2ccc(N3CCCCC3)c([N+](=O)[O-])c2)n1`, the compound was called inactive.
`Brc1ccc2nc(-c3ccccc3)c(Nc3ccc4c(c3)OCO4)n2c1`: the “activity change, negative = inhibition” value was inactive: 2.93%.
The same measure, in the same setting: then `CCC(=O)N1CCc2cc(CNC(=O)Nc3cc(Cl)ccc3C(=O)OC)ccc21`, with inactive: 3.95%; and `CCc1cccc(NC(=O)C(CC(C)C)NS(=O)(=O)c2ccc3c(c2)oc(=O)n3C)c1` (stereo not drawn), with inactive: 5.02%.
Regarding `Cc1ccc(CN2C(=O)c3ccccc3Sc3ccc(C(=O)NCCCN4CCOCC4)cc32)cc1`, the compound was classed as inactive.
For the compound `Cc1cc(Cl)ccc1OCc1cc(=O)n2c3c(sc2n1)CCCC3`, the result was inactive.
Consider `CC(C)(C)c1nc(-c2cccc(NS(=O)(=O)c3c(F)cccc3F)c2F)c(-c2ccnc(N)n2)s1`, for which the “activity change, negative = inhibition” value is inactive: 28%.
For `CCc1ccc(CNC(=O)CN2C(=O)CCn3nc(-c4cn(C)c5ccccc45)cc32)cc1`, the call was inactive.
As for `COc1ccccc1-c1nnc(SCC(=O)c2ccc(F)cc2)n1-c1ccccc1`, the “activity change, negative = inhibition” value was inactive: -14.1%.
As for `Cn1nnnc1SCCNCc1ccc(OCc2ccc(Cl)cc2)cc1`, the “activity change, negative = inhibition” value is inactive: -17.9%.
Take `O=C(Nc1cccc(Cl)c1)C1CCCN1S(=O)(=O)c1cccc2cccnc12` (stereo not drawn): the “activity change, negative = inhibition” value is inactive: -8.39%.
For `Cc1cccc(NC(=O)CSc2nc(=O)n(Cc3cccnc3)c3c2CCC3)c1C`, the “activity change, negative = inhibition” value is inactive: 1.27%.
As for `COc1cccc2c1CCCC2CCCN1CCN(C2CCCCC2)CC1` (stereo not drawn), the “activity change, negative = inhibition” value is inactive: 2.44%.
Same read-out and setting: to `COc1ccc(C(=O)Nc2ccc(N3CCOCC3)c(C(F)(F)F)c2)cc1OC` belongs inactive: -18.9%; to `COc1cccc(OCC(=O)Nc2nnc3n2CCS3)c1`, inactive: -1.55%; to `CCc1ccc(C2=C(C)C(N3CCC(C(=O)NCCc4ccco4)CC3)=NS2(=O)=O)cc1`, inactive: 10.7%.
As to `Cc1oc(-c2cccc(Cl)c2)nc1CN1CCC(C(=O)NCCc2ccc(Cl)cc2)CC1`, the “activity change, negative = inhibition” value was inactive: 1.88%.
For `COc1ccc(NC(=O)c2cc3c(=O)n(Cc4cccnc4)ccc3nc2C)cc1Cl`, the “activity change, negative = inhibition” value was inactive: -7.36%.
Consider `COc1ccccc1NC(=O)c1cc(S(=O)(=O)N2CCc3ccccc32)ccc1F`, for which the “activity change, negative = inhibition” value is inactive: 3.55%.
As to `CN(C)c1ccc(C(CNS(=O)(=O)c2ccc(F)cc2)N2CCc3ccccc32)cc1` (stereo not drawn), the “activity change, negative = inhibition” value is inactive: 8.32%.
For the compound `COc1cc(-c2nnc(SCC(=O)Oc3ccccc3Cl)o2)cc(OC)c1OC`, the “activity change, negative = inhibition” value was inactive: -4.68%.
